{"source": "paper PMC11407943", "about": "“Cdc14 phosphatases use an intramolecular pseudosubstrate motif to stimulate and regulate catalysis” (The Journal of Biological Chemistry, 2024)", "molecules": {"B1": {"name": "hCdc14AQ395A (protein, UniProt Q9UNH5 1-594, looked up, variant Q395A)", "Dual specificity protein …": "MAAESGELIGACEFMKDRLYFATLRNRPKSTVNTHYFSIDEELVYENFYADFGPLNLAMVYRYCCKLNKKLKSYSLSRKKIVHYTCFDQRKRANAAFLIGAYAVIYLKKTPEEAYRALLSGSNPPYLPFRDASFGNCTYNLTILDCLQGIRKGLQHGFFDFETFDVDEYEHYERVENGDFNWIVPGKFLAFSGPHPKSKIENGYPLHAPEAYFPYFKKHNVTAVVRLNKKIYEAKRFTDAGFEHYDLFFIDGSTPSDNIVRRFLNICENTEGAIAVHCKAGLGRTGTLIACYVMKHYRFTHAEIIAWIRICRPGSIIGPQQHFLEEKQASLWVQGDIFRSKLKNRPSSEGSINKILSGLDDMSIGGNLSKTQNMERFGEDNLEDDDVEMKNGITAGDKLRALKSQRQPRTSPSCAFRSDDTKGHPRAVSQPFRLSSSLQGSAVTLKTSKMALSPSATAKRINRTSLSSGATVRSFSINSRLASSLGNLNAATDDPENKKTSSSSKAGFTASPFTNLLNGSSQPTTRNYPELNNNQYNRSSNSNGGNLNSPPGPHSAKTEEHTTILRPSYTGLSSSSARFLSRSIPSLQSEYVHY"}, "B2": {"name": "ScCdc14^1-449: truncation of S. cerevisiae Cdc14 that retains the SLiCE motif (protein)", "chain": "MRRSVYLDNTIEFLRGRVYLGAYDYTPEDTDELVFFTVEDAIFYNSFHLDFGPMNIGHLYRFAVIFHEILNDPENANKAVVFYSSASTRQRANAACMLCCYMILVQAWTPHQVLQPLAQVDPPFMPFRDAGYSNADFEITIQDVVYGVWRAKEKGLIDLHSFNLESYEKYEHVEFGDFNVLTPDFIAFASPQEDHPKGYLATKSSHLNQPFKSVLNFFANNNVQLVVRLNSHLYNKKHFEDIGIQHLDLIFEDGTCPDLSIVKNFVGAAETIIKRGGKIAVHCKAGLGRTGCLIGAHLIYTYGFTANECIGFLRFIRPGMVVGPQQHWLYLHQNDFREWKYTTRISLKPSEAIGGLYPLISLEEYRLQKKKLKDDKRVAQNNIEGELRDLTMTPPSNGHGALSARNSSQPSTANNGSNSFKSSAVPQTSPGQPRKGQNGSNTIEDINNN", "modifications": "left off: 6xHis, N-terminal, state not stated"}, "B3": {"name": "ScCdc14^S429E (protein, UniProt Q00684 1-551, looked up, variant S429E)", "Tyrosine-protein phosphatase …": "MRRSVYLDNTIEFLRGRVYLGAYDYTPEDTDELVFFTVEDAIFYNSFHLDFGPMNIGHLYRFAVIFHEILNDPENANKAVVFYSSASTRQRANAACMLCCYMILVQAWTPHQVLQPLAQVDPPFMPFRDAGYSNADFEITIQDVVYGVWRAKEKGLIDLHSFNLESYEKYEHVEFGDFNVLTPDFIAFASPQEDHPKGYLATKSSHLNQPFKSVLNFFANNNVQLVVRLNSHLYNKKHFEDIGIQHLDLIFEDGTCPDLSIVKNFVGAAETIIKRGGKIAVHCKAGLGRTGCLIGAHLIYTYGFTANECIGFLRFIRPGMVVGPQQHWLYLHQNDFREWKYTTRISLKPSEAIGGLYPLISLEEYRLQKKKLKDDKRVAQNNIEGELRDLTMTPPSNGHGALSARNSSQPSTANNGSNSFKSSAVPQTEPGQPRKGQNGSNTIEDINNNRNPTSHANRKVVIESNNSDDESMQDTNGTSNHYPKVSRKKNDISSASSSRMEDNEPSATNINNAADDTILRQLLPKNRRVTSGRRTTSAAGGIRKISGSIKK"}}, "test": "Steady-state kinetics of Cdc14 enzyme variants toward DiFMUP", "key": {"[1]": {"details": "DiFMUP, steady state, compared to parent/WT enzyme"}}, "note": "Read-outs that look alike come from different tables or passages of the source."}
{"molecule": "B1", "values": [{"measurement": "change in KM (in words)", "value": "approximately equivalent decreases in both kcat and KM"}, {"measurement": "change in kcat (in words)", "value": "approximately equivalent decreases in both kcat and KM"}]}
{"molecule": "B2", "values": [{"measurement": "steady-state kinetics compared (in words)", "value": "nearly identical kinetics"}]}
{"molecule": "B3", "values": [{"measurement": "change in KM (in words)", "setting": "[1]", "value": "significant decrease in both kcat and KM"}, {"measurement": "change in kcat (in words)", "setting": "[1]", "value": "significant decrease in both kcat and KM"}]}
